# Test results from paper PMC4336329 (PLoS ONE, 2015).
# Hit rate of the full screen: of about 310,000 compounds, about 2,200 (0.71%) showed an effect of 50% or more. Effects have a minus sign here. This is one part of the list.
# Target: human ether-à-go-go-related gene (hERG) potassium channel (human, UniProt Q12809)
# Assay: primary screen, population patch clamp on CHO cells stably expressing hERG
# human ether-à-go-go-related gene (hERG) potassium channel, sequence (Q12809 whole entry, looked up): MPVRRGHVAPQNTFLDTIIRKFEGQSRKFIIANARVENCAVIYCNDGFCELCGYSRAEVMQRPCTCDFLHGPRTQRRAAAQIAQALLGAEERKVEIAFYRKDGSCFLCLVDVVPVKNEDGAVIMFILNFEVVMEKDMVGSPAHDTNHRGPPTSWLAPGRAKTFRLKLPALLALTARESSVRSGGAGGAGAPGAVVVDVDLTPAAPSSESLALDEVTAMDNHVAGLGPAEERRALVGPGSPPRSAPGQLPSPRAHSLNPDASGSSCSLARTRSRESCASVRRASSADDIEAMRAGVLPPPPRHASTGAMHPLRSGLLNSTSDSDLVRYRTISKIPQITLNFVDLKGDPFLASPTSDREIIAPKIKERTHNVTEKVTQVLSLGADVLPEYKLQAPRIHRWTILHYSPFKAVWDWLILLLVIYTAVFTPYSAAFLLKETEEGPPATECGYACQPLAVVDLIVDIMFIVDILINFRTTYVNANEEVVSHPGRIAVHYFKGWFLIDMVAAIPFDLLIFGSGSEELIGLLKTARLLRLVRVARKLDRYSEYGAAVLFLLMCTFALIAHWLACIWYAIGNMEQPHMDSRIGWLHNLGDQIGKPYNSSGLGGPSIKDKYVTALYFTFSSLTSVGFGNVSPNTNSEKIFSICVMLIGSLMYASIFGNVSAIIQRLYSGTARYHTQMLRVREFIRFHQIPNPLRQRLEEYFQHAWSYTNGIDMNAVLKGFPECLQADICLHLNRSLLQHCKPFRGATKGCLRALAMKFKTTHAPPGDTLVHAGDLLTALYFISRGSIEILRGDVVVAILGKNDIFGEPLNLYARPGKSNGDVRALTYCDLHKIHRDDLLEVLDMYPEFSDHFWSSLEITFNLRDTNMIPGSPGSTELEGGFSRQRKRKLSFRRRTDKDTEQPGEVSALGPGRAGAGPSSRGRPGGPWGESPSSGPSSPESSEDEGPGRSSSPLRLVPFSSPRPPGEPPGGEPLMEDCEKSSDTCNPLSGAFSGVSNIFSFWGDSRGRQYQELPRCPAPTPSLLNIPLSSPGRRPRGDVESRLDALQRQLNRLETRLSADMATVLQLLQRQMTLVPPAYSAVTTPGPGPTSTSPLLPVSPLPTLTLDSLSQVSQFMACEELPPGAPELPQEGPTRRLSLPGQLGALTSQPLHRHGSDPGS
row,SMILES,"hERG current change (%, negative = inhibition) at 1uM [%]"
1,CCOc1ccc2[nH]c(C)c(CN3CCCCCC3)c(=O)c2c1,7.88
2,COc1ccccc1NC(=O)C1CCN(c2ncnc3c2nc2n3CCCCC2)CC1,2.48
3,CC1CCN(C(=S)c2ccccc2O)CC1,7.29
4,COc1ccc(CN2CCN(c3ccccc3OC)CC2)c(OC)c1.O=C(O)C(=O)O,-47.7
5,CC(C)(C)N(Cc1ccccc1)C(=O)CN1C(=O)c2ccccc2C1=O,9.45
6,COC(=O)C1=C(C)N=C2SC(C)C(=O)N2C1c1cccc(F)c1 (centres unmarked),11.4
7,O=C(COC(=O)c1ccc(Cl)cc1O)Nc1cccnc1Cl,8.2
8,COc1cccc2oc3cc(C#CC4(O)CCCCC4)ccc3c(=O)c12,14.1
9,CO/N=C\CC(=O)Nc1ccc(Cl)cc1Cl,6.26
10,O=C(Cn1cnc2ccccc2c1=O)Nc1ccc(N2CCOCC2)cc1,7.91
11,O=C(CSc1n[nH]c(=O)n1-c1ccccc1)N1CCOCC1,14.4
12,COc1ccccc1-c1noc(COC(=O)c2ccc(Br)o2)n1,1.09
13,CCN(CCCn1c(SCC#N)nc2ccccc2c1=O)c1ccccc1,-1.98
14,CCc1nnc(NC(=O)CSc2nnc(COc3ccccc3)n2Cc2ccccc2)s1,-0.402
15,CN(C)C=Nc1nonc1-c1ccc(Cl)cc1,11.2
16,COc1cc(NC(=O)CN2CC(c3ccccc3)CC2=O)cc(OC)c1 (centres unmarked),11.5
17,CCn1cc(C(=O)OCc2ccc(F)cc2)c(=O)c2ccc(C)nc21,0.147
18,O=[N+]([O-])c1ccc(CNc2cccc(Cl)c2)s1,7.07
19,O=S(=O)(Nc1nccs1)c1ccc(NCc2cc(Br)cc(Br)c2O)cc1,10.9
20,Cc1ccn2cc(C(=O)Nc3nnc(C)s3)nc2c1,10.5
21,CCN(CC(=O)Nc1ccccc1C(F)(F)F)C(=O)CCS(=O)(=O)c1ccc(Cl)cc1,9.68
22,CCN(CC)CCCNC(=S)N1CCN(c2nc(-c3ccc(F)cc3)cs2)CC1,12.7

row,SMILES,"hERG current change (%, negative = inhibition) at 1uM [%]"
1,CCN(CC(=O)Nc1ccc(NC(C)=O)cc1)C(=O)c1ccc(C(=O)c2ccccc2)cc1,12.4
2,CC(=O)OCC1OC(OCc2cn(C[C@H]3CC[C@H](Cn4cc(COC5OC(COC(C)=O)C(OC(C)=O)C(OC(C)=O)C5OC(C)=O)nn4)O3)nn2)C(OC(C)=O)C(OC(C)=O)C1OC(C)=O (some centres unmarked),13.2
3,Clc1ccc(-n2ncc3c(NCCCn4ccnc4)ncnc32)cc1,-6.58
4,Cc1ccc(SCC(=O)OC(C)C(=O)NC2CCCCC2C)c(C)c1 (centres unmarked),8.58
5,NCCc1ccccc1,16.5
6,COc1ccc(C(CNC(=O)c2ccc(C)c(S(=O)(=O)N3CCCCC3)c2)N(C)C)cc1OC (centres unmarked),7.76
7,Cc1cc(C)cc(-c2nnc(SCC(=O)N3CCN(C(=O)c4ccco4)CC3)o2)c1,7.61
8,Cc1ccc(C(=O)NNC(=O)c2ccc(NS(=O)(=O)c3cccs3)cc2)s1,19.6
9,Cc1ccc(NC(=O)c2oc3ccc(S(=O)(=O)N4CCC5(CC4)OCCO5)cc3c2C)cc1C,5.25
10,CCc1cccc(NC(=O)CCSCCC(=O)Nc2cccc(CC)c2)c1,19
11,O=C1NC(Cc2ccccc2)c2nc3ccc(Cl)cc3c(=O)n2-c2ccc(Cl)cc21 (centres unmarked),10.4
12,COCn1ccnc1C(O)(c1ccc(OC)cc1)c1ccc(OC)cc1,9.51
13,Cc1c(C)n(Cc2ccc(F)cc2)c2ccc(C(=O)NCCN3CCOCC3)cc12,6.56
14,CC(C)C(C)NC(=O)COc1ccc(-c2ccccc2)cc1 (centres unmarked),12.9
15,O=C(CSc1nnc(CN2CCCCC2)n1-c1ccccc1)c1ccc2c(c1)OCO2,-8.68
16,Cl.O=C(CN1CCCC1)NCc1ccccc1,13.4
17,O=S(=O)(NC1CCCCCCC1)c1ccccc1F,1.98
18,COc1ccc(NC(=O)Cn2nc([N+](=O)[O-])c(Cl)c2C)cc1OC,6.63
19,CCOc1ccc(-c2c(C)n([O-])c3c([n+]2=O)CCCCC3)cc1,6.48
20,CCC(C)n1c(SCC(=O)Nc2ccccc2C(F)(F)F)nc2ccsc2c1=O (centres unmarked),-2.54
21,C=CCN=C1S/C(=C/c2ccc([N+](=O)[O-])cc2)C(=O)N1CC=C,11.1
22,O=S(=O)(c1cccc(Br)c1)N1CCN(C(=S)NCC2CCCO2)CC1 (centres unmarked),10.3

row,SMILES,"hERG current change (%, negative = inhibition) at 1uM [%]"
1,O=C(Nc1ccccc1F)c1cc(C(=O)Nc2ccccc2F)cc([N+](=O)[O-])c1,11.5
2,COc1nc(NCc2ccc(Cl)cc2)nc(OC)n1,13.7
3,CCc1cc(-c2n[nH]c(=S)n2CC)cs1,20.6
4,CCc1c(C)sc(NC(=O)c2ccco2)c1C(=O)N1CCOCC1,12.7
5,CCN(c1ccccc1C(=O)O)S(=O)(=O)c1ccc2[nH]c(=O)[nH]c2c1,12.7
6,Cc1csc(NC(=O)c2ccc(Cl)nc2)n1,7.59
7,CCc1nnc(NC(=O)CSc2nnnn2-c2cccc(C(=O)OC)c2)s1,7.81
8,C=CCNC(=O)c1ccccc1NC(=O)c1ccc(Cl)c(S(=O)(=O)Nc2cccc(C)c2C)c1,-0.793
9,CCc1ccccc1NC(=O)c1cc(S(=O)(=O)N2CCc3ccccc32)cn1C,5.92
10,CCCC(NC(=O)CCc1c(C)c2cc3c4c(oc3c(C)c2oc1=O)CCCC4)C(=O)O (centres unmarked),9.46
11,CC(=O)c1ccc(-c2ccc([C@H]3[C@@H]4C=CCC[C@@]4(C)C(=O)N3Cc3ccccc3)c(F)c2)cc1,9.07
12,CC1(C)CC(c2nc(-c3ccc([N+](=O)[O-])cc3)cs2)CCO1 (centres unmarked),9.08
13,CNC(=O)c1c(NC(=O)c2ccc(S(=O)(=O)N3CCCCC3)cc2)sc2c1CCN(C(C)C)C2,4.61
14,COc1cc(OC)cc(C(=O)OCc2ccc([N+](=O)[O-])cc2)c1,9.12
15,C=CCOc1ccc(C=Nc2ccc(OC)cc2)c(O)c1,18.3
16,CCCS(=O)(=O)c1c(S(=O)(=O)CCC)c2c(N)cccn2c1C(=O)OC,3.94
17,COc1ccc(N2C(=O)CC(N3CCC(n4c(=O)[nH]c5ccccc54)CC3)C2=O)cc1 (centres unmarked),-14.8
18,CN1CCN(C(=O)c2cnn(-c3ccccc3)c2NC(=O)c2cccs2)CC1,-24.1
19,O=C(Nc1ccccc1F)c1ccc(Cn2cc(Cl)cn2)cc1,2.2
20,CC(C)OCC1CO1 (centres unmarked),11.2
21,COc1ccc(C(=O)Nc2ccc(CN3CCOCC3)cc2)cc1Br,4.93
22,OC[C@@H](O)[C@H](O)C(/C=N/Nc1ccccc1)=N\Nc1ccccc1,13

row,SMILES,"hERG current change (%, negative = inhibition) at 1uM [%]"
1,Cc1ccc2oc(C(=O)N(C)Cc3ccon3)c(C)c2c1,8.72
2,Cc1ccc(S(=O)(=O)NCCNC(=O)CN2CCCC2)cc1,-2.48
3,O=C(c1ccc(CN2CCOCC2)cc1)N1CCN(c2ccccc2F)CC1,3.18
4,Cl.N=c1c2c(n(Cc3ccc(Cl)cc3Cl)c3c1CCC3)CCCC2,6.18
5,O=C(c1cccnc1)N1CCCC(Nc2ccc(F)cc2)C1 (centres unmarked),16.4
6,CS(=O)(=O)O.Cc1c(O)cccc1C(=O)N[C@@H](CSc1ccccc1)[C@H](O)CN1C[C@H]2CCCC[C@H]2C[C@H]1C(=O)NC(C)(C)C,-4.95
7,CN(C)CC[n+]1ccc(C(=O)c2ccccc2)cc1.Cl.[Cl-],12.5
8,Fc1ccc(Cn2c(SCc3ccc(F)c(C(F)(F)F)c3)nnc2C(F)(F)F)cc1,-0.982
9,N/C(=N\OC(=O)CC(c1ccccc1)c1ccccc1)c1cccnc1,13.2
10,COc1cccc(C2c3[nH]c4ccccc4c3CCN2C(=O)Cn2cncn2)c1OC (centres unmarked),5.37
11,CC(=O)NC1(NC(C)=O)CCN(C)CC1,8.58
12,O=C(Nc1ccccc1C(=O)NCc1ccco1)Nc1cccc2ccccc12,6.88
13,CCN(CC)CCNC(=O)C1c2ccccc2C(=O)N(C)C1c1cn(C)c2ccccc12 (centres unmarked),6.3
14,CC(C)(C)c1cc(C(=O)O)c(CN2CCCCC2)o1.Cl,-1.18
15,O=C(COc1ncnc2ccccc12)Nc1cc([N+](=O)[O-])ccc1Cl,19.1
16,COc1ccc(CN(CCc2ccccc2)Cc2ccccc2)cc1OC.O=C(O)C(=O)O,2.26
17,COc1ccccc1-n1c(-c2ccccc2Br)nc2ccccc2c1=O,12.3
18,Cc1ccccc1NC(=O)Cc1nnc(SCC(=O)NC2CCCCC2)n1C,12
19,O=C(Nc1ccc(F)cc1F)c1cccc(C(=O)Nc2ccc(F)cc2F)n1,9.79
20,CCn1cc(C2=NOC(C(=O)Nc3cc(C)nn3-c3ccccc3)C2)c(C)n1 (centres unmarked),0.767
